According to PubChem BioAssay AID485281 (National Center for Advancing Translational Sciences (NCATS), 2010):
The whole screen tested about 350,000 compounds, of which about 260 (0.074%) were called active. The inconclusive results got no clear call from the source; some entries with a clear call stand among them for comparison. Calls come from the whole dose curve; as a rule, active = well fitted inhibition curve with a large enough effect; inconclusive = small, poorly fitted or top-dose-only effect; inactive = no such curve, though single readings can be large or run the other way. Potencies of inconclusive entries are doubtful fits and often do not repeat.

The compounds below were run against Ferritin light chain (Equus caballus) (UniProt P02791) (assay: qHTS Assay for Identification of Novel General Anesthetics). Details: apoferritin/1-aminoanthracene competitive binding, fluorescence; activity change, negative = displacement: at 77.5 µM (top of the series).
Sequence of UniProt P02791 (P02791 whole entry, looked up): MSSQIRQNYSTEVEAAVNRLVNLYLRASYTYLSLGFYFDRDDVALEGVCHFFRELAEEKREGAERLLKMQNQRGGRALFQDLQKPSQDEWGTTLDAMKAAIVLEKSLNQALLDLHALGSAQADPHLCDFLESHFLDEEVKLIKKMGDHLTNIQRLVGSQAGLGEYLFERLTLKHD
Summary of the method: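 Read-out: endpoint 1-AMA fluorescence, excitation 380 nm and emission 535 nm, after compounds sit 10 min at room temperature with 10 uM horse-spleen apoferritin in 50% saturated 1-AMA/PBS. Values come from four-parameter Hill fits.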
% is set by controls: 0 for no effect and ±100 for the full control effect; potency is the fitted concentration of half-maximal effect; tags give direction and shape of the fitted curve.
Note: nearly all actives have a fitted effect of over 20% in size.

| SMILES | Potency | activity change, negative = displacement |
| --- | --- | --- |
| COc1cccc(NC(=O)COC(=O)COc2cccc3c2OC(C)(C)C3)c1 | inconclusive: 20 µM [inhibitor, partial curve] | – |
| O=C(O)c1cccc(NC(=S)N/N=C/c2ccccc2OCc2cccc(Br)c2)c1 | inconclusive: 31.6 µM [inhibitor, partial curve] | – |
| Cc1noc2ncnc(Sc3ccccc3Cl)c12 | inconclusive: 28.2 µM [inhibitor, partial curve] | – |
| Cc1cc(C)n(-c2nc(SCCN(C)C)c3c4c(sc3n2)COC(C)(C)C4)n1 | inconclusive: 35.5 µM [inhibitor, partial curve] | – |
| Cc1cc(C)nc(Nc2cccc(Cl)c2)n1 | inconclusive: 35.5 µM [inhibitor, partial curve] | – |
| CCCc1nnc(NC(=O)CCC(=O)N2CCCCC2CC)s1 (configuration not stated) | inconclusive: 31.6 µM [inhibitor, single point] | – |
| CCN1CCN(Cc2ccc(NC(=O)c3ccc(C)c(NC(=O)N4CCNC4=O)c3)cc2C(F)(F)F)CC1 | inactive | – |
| Cc1ccc(-c2noc(C3CCCN(C(=O)C4CCCCC4)C3)n2)o1 (configuration not stated) | inconclusive: 50.1 µM [inhibitor, single point] | – |
| O=C(NC1CCCCC1)C(=S)NCc1ccccc1 | inconclusive: 11.2 µM [inhibitor, partial curve] | – |
| O=C(NCCC1=CCCCC1)c1ccc(Cl)c([N+](=O)[O-])c1 | inconclusive: 22.4 µM [inhibitor, partial curve] | – |
| O=C(N/N=C/c1ccc([N+](=O)[O-])s1)c1ccccc1Br | inconclusive: 28.2 µM [inhibitor, partial curve] | – |
| COc1ccccc1NC(=O)NC1CCCCCCC1 | inconclusive: 15.8 µM [inhibitor, partial curve] | – |
| CCC(CO)n1c(SCc2cc(=O)oc3cc(C)ccc23)nc2ccccc2c1=O (configuration not stated) | inconclusive: 31.6 µM [inhibitor, partial curve] | – |
| NC(=S)c1ccc(C(N)=S)o1 | inconclusive: 39.8 µM [inhibitor, single point] | – |
| O=C(Nc1ccc(N2CCCC2)c(Cl)c1)c1cccs1 | inconclusive: 31.6 µM [inhibitor, partial curve] | – |
| CC1(C)CC2CC(C)(CN2C(=O)c2ccc([N+](=O)[O-])cc2)C1 (configuration not stated) | inconclusive: 25.1 µM [inhibitor, partial curve] | – |
| CCc1ccc(C(=O)CN2C(=O)NC(C)(c3ccc(C)cc3)C2=O)cc1 (configuration not stated) | inconclusive: 15.8 µM [inhibitor, partial curve] | – |
| CCC1CCCCN1S(=O)(=O)c1ccc(NC(=O)CSc2ncccc2C(=O)O)cc1 (configuration not stated) | inconclusive: 31.6 µM [inhibitor, single point] | – |
| O=C(COC(=O)Cc1ccsc1)NCC1CCCCC1 | inconclusive: 25.1 µM [inhibitor, partial curve] | – |
| O=C(OCC#CCSc1nc2ccccc2s1)c1ccco1 | inconclusive: 35.5 µM [inhibitor, partial curve] | – |
| COc1cccc(NC(=O)N2CCCCCC2)c1 | inconclusive: 12.6 µM [inhibitor, partial curve] | – |
| CC(C)Sc1nc(C(F)(F)F)cc(=O)n1-c1ccccc1 | inconclusive: 28.2 µM [inhibitor, partial curve] | – |
| CCCOCc1cc(CN2CCN(c3ccccc3OC)CC2)c(O)c2ncccc12 | inconclusive: 1 µM [inhibitor, full curve] | – |

| SMILES | Potency | activity change, negative = displacement |
| --- | --- | --- |
| CN(C)c1ccc(CNC2C3CC4CC(C3)CC2C4)cc1 (configuration not stated) | inconclusive: 31.6 µM [inhibitor, single point] | – |
| Cc1cc2n(n1)C(c1ccc3c(c1)OCO3)Nc1c(C)cccc1-2 (configuration not stated) | inconclusive: 15.8 µM [inhibitor, partial curve] | – |
| CC1CCCC(C)N1C(=O)CN1C(=O)C(C)(C)Oc2ccc(C(=O)NC3CCCCC3)cc21 (configuration not stated) | inconclusive: 15.8 µM [inhibitor, partial curve] | – |
| Cc1cc(C(=O)OCC(=O)NC(=O)NC(C)(C)C)c(C)o1 | inconclusive: 50.1 µM [inhibitor, single point] | – |
| O=C(CCOc1ccccc1)Nc1ccc(S(=O)(=O)N2CCCC2)cc1 | inconclusive: 11.2 µM [inhibitor, full curve, poor fit] | – |
| Cc1ccc(OCc2ccc(C(=O)O)o2)cc1C | – | inactive: 12.1% |
| O=C(Nc1cccc(NC(=O)c2cccc(F)c2)n1)c1cccc(F)c1 | – | inactive: -4.92% |
| CNC(=S)N(Cc1ccco1)Cc1cc2cc(OC)c(OC)cc2[nH]c1=O | – | inactive: -22.2% |
| CCOc1ncccc1C(=O)OCC(=O)Nc1ccc(-c2nc3ccc(C)cc3s2)cc1 | – | inactive: -11.4% |
| Cc1ccc(Cn2cccc2C2=NC(C)CO2)cc1 (configuration not stated) | inconclusive: 17.8 µM [inhibitor, partial curve] | – |
| O=C(CCCSc1nc(-c2ccco2)cc(C(F)(F)F)n1)NCc1cccs1 | inconclusive: 12.6 µM [inhibitor, partial curve] | – |
| Cc1ccc2occ(CC(=O)Nc3c(C(=O)Nc4ccc(Cl)cc4)oc4ccccc34)c2c1 | – | inactive: 0.628% |
| CC(=O)Nc1ccccc1OCCOc1ccc(Br)cc1 | inconclusive: 112 µM [inhibitor, partial curve] | – |
| Cc1ccc(CSc2nncn3c2cc2sccc23)cc1 | – | inactive: -5.06% |
| CCCCC(CC)C(=O)Nc1cc(C(=O)NCCC)ccc1N1CCC2(CC1)CC(c1ccccc1)=NO2 (configuration not stated) | – | inactive: 33.3% |
| Cc1cc(C)c2c(=O)n(CC(=O)Nc3cccc(F)c3)sc2n1 | – | inactive: -7.05% |
| CC12CC3CC(C)(C1)CC(C(=O)NC1=NCCS1)(C3)C2 | inconclusive: 8.91 µM [inhibitor, full curve] | – |
| COc1cc(OC)c(NC(=O)C(C)n2nc(-c3ccc(C)cc3)c3c(c2=O)CCCC3)cc1Cl (configuration not stated) | inconclusive: 50.1 µM [inhibitor, single point] | – |
| CC(C)OC(=O)NC(c1ccccc1)C(Cl)(Cl)Cl (configuration not stated) | inconclusive: 31.6 µM [inhibitor, single point] | – |
| COc1ccc(CNC(=O)CSCc2ccccc2Cl)cc1 | inconclusive: 31.6 µM [inhibitor, single point] | – |
| CC1Cc2ccccc2N1C(=O)CSc1nc(N)cc(=O)[nH]1 (configuration not stated) | inconclusive: 39.8 µM [inhibitor, partial curve] | – |
| Cc1ccc(NC(=O)C2CCCN(c3ncnc4onc(C)c34)C2)cc1Cl (configuration not stated) | inconclusive: 1 µM [inhibitor, full curve] | – |
| O=C(Cc1cccs1)N1CCCC(c2nc3c(nnn3Cc3cccc(Cl)c3)c(=O)[nH]2)C1 (configuration not stated) | inconclusive: 17.8 µM [inhibitor, partial curve] | – |

| SMILES | Potency | activity change, negative = displacement |
| --- | --- | --- |
| CC(C)c1ccc(C2C3=C(CC(C)(C)CC3=O)NC3=C2C(=O)c2ccccc23)cc1 (configuration not stated) | inconclusive: 11.2 µM [inhibitor, partial curve] | – |
| NNc1nc(-c2ccccc2Cl)c2cc(Br)ccc2n1 | inconclusive: 0.794 µM [inhibitor, full curve, poor fit] | – |
| CCn1cc(C(=O)NCc2ccccc2Cl)c(=O)c2cc(S(=O)(=O)N3CCCCCC3)ccc21 | inconclusive: 11.2 µM [inhibitor, partial curve] | – |
| COc1ccc(C23CC4CC(CC(C4)C2)C3)cc1C(=O)NCCN(C)C | inconclusive: 31.6 µM [inhibitor, partial curve] | – |
| CCCCC(=O)Nc1ccc(C(=O)OCc2cc(=O)n3ccsc3n2)cc1 | inconclusive: 14.1 µM [inhibitor, partial curve] | – |
| COc1ccc(N2CCN(C(=O)c3ccc4c(c3)NC(=O)C(CSCc3c(F)cccc3Cl)N4)CC2)cc1 (configuration not stated) | inconclusive: 44.7 µM [inhibitor, single point] | – |
| CCOC(=O)c1sc2cccc(F)c2c1S(=O)(=O)Nc1ccccc1F | inconclusive: 44.7 µM [inhibitor, single point] | – |
| O=C(/C=C/c1cc([N+](=O)[O-])ccc1OC(F)F)NCc1ccc(Cl)cc1 | inconclusive: 11.2 µM [inhibitor, partial curve] | – |
| CCOc1cc(C(=O)NCC(=O)N/N=C/c2sccc2C)cc(OCC)c1OCC | inconclusive: 35.5 µM [inhibitor, partial curve] | – |
| CC(C)c1cccc(C(C)C)c1NS(=O)(=O)c1cccs1 | – | inactive: -21% |
| Cc1cccc(CNC(=O)c2ccccc2N)c1 | – | inactive: 0.26% |
| COc1cccc(-c2ccc(C#N)c(OC(=O)c3c(Cl)cccc3Cl)n2)c1 | inconclusive: 20 µM [inhibitor, partial curve] | – |
| Cc1ccc(C2=NNC(=O)C(c3ccc(Cl)cc3)C2)cc1 (configuration not stated) | – | inactive: -23.4% |
| O=C(CC1SCCNC1=O)Nc1ccc(Cl)c(Cl)c1 (configuration not stated) | inconclusive: 15.8 µM [inhibitor, partial curve] | – |
| CCOC(=O)C1CCN(C(c2cc3c(C)ccc(C)c3[nH]c2=O)c2nnnn2C2CCCCC2)CC1 (configuration not stated) | inconclusive: 14.1 µM [inhibitor, partial curve] | – |
| COc1ccc(NC(=S)NCCc2ccccc2OC)c(OC)c1 | inconclusive: 35.5 µM [inhibitor, single point] | – |
| O=C(NC1CCCCC1)c1ccc(Br)o1 | inconclusive: 35.5 µM [inhibitor, partial curve] | – |
| COc1ccc(O)c(C(=O)c2cnc3c(c2)c(-c2ccc(F)cc2)c(C#N)c(=O)n3C)c1 | inconclusive: 50.1 µM [inhibitor, single point] | – |
| Cc1cc(C(=O)Nc2sc3c(c2C#N)CCCC3)no1 | – | inactive: 6.38% |
| CCOc1ncccc1C(=O)Nc1cccc(C(=O)Nc2cccc(S(=O)(=O)CCO)c2)c1 | inconclusive: 35.5 µM [inhibitor, partial curve] | – |
| CCOc1ccc(Oc2ccc(Cl)cc2N)cc1 | inconclusive: 25.1 µM [inhibitor, partial curve] | – |
